Reference: PubChem BioAssay AID504332 (National Center for Advancing Translational Sciences (NCATS), 2011)
The whole screen tested about 350,000 compounds, of which about 31,000 (8.9%) were called active. The shares of active, inactive and inconclusive entries below differ from those in the screen. Calls follow the shape of the dose curve; as a rule, active = well fitted inhibition curve with a large enough effect; inconclusive = small, poorly fitted or top-dose-only effect; inactive = no such curve, though single readings can be large or run the other way. Potencies of inconclusive entries are doubtful fits and often do not repeat.

What follows are compounds tested against Histone-lysine N-methyltransferase EHMT2 (Homo sapiens) (UniProt Q96KQ7) (assay: qHTS Assay for Inhibitors of Histone Lysine Methyltransferase G9a). Conditions: G9a H3K9 monomethylation, AlphaScreen, 2 h; activity, negative = inhibition: at 59 µM (top of the series) unless noted.
Chain of UniProt Q96KQ7 (Q96KQ7 whole entry, looked up): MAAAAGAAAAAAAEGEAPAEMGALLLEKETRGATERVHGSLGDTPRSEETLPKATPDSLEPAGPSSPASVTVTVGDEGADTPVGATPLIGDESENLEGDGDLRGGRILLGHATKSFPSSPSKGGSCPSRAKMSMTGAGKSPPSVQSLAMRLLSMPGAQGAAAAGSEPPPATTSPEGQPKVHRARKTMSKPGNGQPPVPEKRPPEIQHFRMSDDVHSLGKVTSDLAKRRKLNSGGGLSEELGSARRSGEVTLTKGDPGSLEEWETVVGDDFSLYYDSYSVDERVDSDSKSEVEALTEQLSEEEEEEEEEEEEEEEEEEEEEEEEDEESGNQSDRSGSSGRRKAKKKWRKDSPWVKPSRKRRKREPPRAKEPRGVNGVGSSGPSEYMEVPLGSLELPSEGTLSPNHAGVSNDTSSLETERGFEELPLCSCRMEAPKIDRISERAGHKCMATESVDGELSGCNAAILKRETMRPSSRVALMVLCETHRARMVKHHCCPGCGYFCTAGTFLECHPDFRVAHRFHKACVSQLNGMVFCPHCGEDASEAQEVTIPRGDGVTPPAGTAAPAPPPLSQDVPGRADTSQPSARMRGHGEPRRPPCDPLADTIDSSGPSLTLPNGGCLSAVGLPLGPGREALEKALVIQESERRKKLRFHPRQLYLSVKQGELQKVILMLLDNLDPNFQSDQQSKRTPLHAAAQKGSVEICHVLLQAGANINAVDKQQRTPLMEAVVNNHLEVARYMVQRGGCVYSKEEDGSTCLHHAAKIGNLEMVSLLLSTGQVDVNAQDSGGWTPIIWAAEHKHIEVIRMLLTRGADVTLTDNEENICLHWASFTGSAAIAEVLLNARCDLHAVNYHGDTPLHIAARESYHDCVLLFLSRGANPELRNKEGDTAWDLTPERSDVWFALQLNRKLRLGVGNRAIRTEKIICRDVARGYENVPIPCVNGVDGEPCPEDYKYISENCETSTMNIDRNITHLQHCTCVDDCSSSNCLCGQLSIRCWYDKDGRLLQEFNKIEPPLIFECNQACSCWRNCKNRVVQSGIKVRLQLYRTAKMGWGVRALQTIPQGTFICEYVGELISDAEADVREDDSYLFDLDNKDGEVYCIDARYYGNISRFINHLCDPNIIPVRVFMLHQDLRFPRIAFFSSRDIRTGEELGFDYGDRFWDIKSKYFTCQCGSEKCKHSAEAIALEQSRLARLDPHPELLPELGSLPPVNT
How it was run: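 Compounds were preincubated with 20 nM G9a for 15 min, after which biotinylated H3K9 peptide (500 nM) and SAM (20 uM) started a 2 h room-temperature reaction. Monomethylated product was quantified by antibody-based AlphaScreen chemiluminescence.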
% is scaled to controls: 0 for no effect and ±100 for the full control effect; potency is read from the fitted curve at half-maximal effect; tags tell the direction and shape of the fitted curve.
Also: nearly all actives have a fitted effect of over 75% in size.

Structure (SMILES)	Potency	activity, negative = inhibition
CC[N+](C)(CC)CCC(c1ccccc1)C1CCCCC1 (stereo not drawn)	inconclusive: 35.5 µM [inhibitor, single point]	–
COc1ccc(C(=O)c2c(C)c3cc(C)ccc3n2CC(O)CN2CCOCC2)cc1 (stereo not drawn)	inconclusive: 25.1 µM [inhibitor, single point]	–
COc1ccccc1-n1c(SCC(=O)Nc2cccc(S(N)(=O)=O)c2)nc2ccccc2c1=O	inconclusive: 39.8 µM [inhibitor, partial curve, poor fit]	–
Cc1cccc(N2CCN(CCCNc3ncnc4onc(-c5ccc(F)cc5)c34)CC2C)c1 (stereo not drawn)	inconclusive: 31.6 µM [inhibitor, partial curve, poor fit]	–
COc1ccc(NCc2ccc([N+](=O)[O-])s2)cc1	active: 7.94 µM	–
COc1ccc(CNC(=O)c2cc(-n3cnnc3)ccc2Cl)cc1	–	inconclusive: -70.9% [inhibitor]
Cc1cc2cc(C(c3nnnn3Cc3ccccc3)N3CCc4ccccc43)c(=O)[nH]c2cc1C (stereo not drawn)	inconclusive: 11.2 µM [inhibitor, partial curve, poor fit]	–
C#CCOCCOCCOCCNc1nc(N2CCOCC2)nc(N2CCN(C(=O)[C@H](CCC(=O)O)n3cc(C(N)Cc4ccc(O)cc4)nn3)CC2)n1 (stereo partly drawn)	–	inactive: 3.1% [at 12.7 µM]
CC(C)Cn1c(N)c(C(=O)NCCN2CCOCC2)c2nc3ccccc3nc21	–	inconclusive: -52.9% [inhibitor] [at 12.7 µM]
COc1cccc(OCc2nnc(SCC(=O)NCc3ccco3)n2C)c1	inactive	–
CS(=O)(=O)N(CC(=O)NC1CC2CCC1C2)c1ccc(Oc2ccccc2)cc1 (stereo not drawn)	inactive	–
O=C(C1CCCC1)N1CCN(S(=O)(=O)c2ccc(F)cc2)CC1	inconclusive: 1.26 µM [inhibitor, partial curve, poor fit]	–
COc1ccc(S(=O)(=O)N2CCN(C)CC2)c2ccccc12	inconclusive: 39.8 µM [inhibitor, partial curve, poor fit]	–
c1cn(-c2ccc(-c3ccnc4ncnn34)cc2)cn1	inactive	–
Cc1ccc(NC(=O)COC(=O)c2csc3c2CCC(C)C3)cc1S(=O)(=O)N1CCCCC1 (stereo not drawn)	inconclusive: 89.1 µM [inhibitor, single point]	–
C[n+]1nc(Nc2ccccc2)sc1-c1ccc(O)cc1	inconclusive: 89.1 µM [inhibitor, single point]	–
COC(=O)CCC(=O)NC(=S)Nc1cc(Cl)ccc1Cl	inconclusive: 50.1 µM [inhibitor, partial curve, poor fit]	–
O=C(NCCN1CCOCC1)/C(=C/c1ccccc1)NC(=O)c1ccccc1	inconclusive: 5.01 µM [inhibitor, partial curve, poor fit]	–
